Test results from patent EP4431525A1 (Anaveon AG, dated 2024).

B1: DXM339 (other)
heavy: EVQLVQSGAEVKKPGESLKISCKGSGYSFTNFYIHWVRQAPGQRLEWMGSIYPNYGDTAYNQKFKDRFVFSLDTSVSTAYLQISSLKAEDTAVYYCARGYSYAMDYWGQGTTVTVSSASTKGPSVFPLAPSSKSTSGGTAALGCLVKDYFPEPVTVSWNSGALTSGVHTFPAVLQSSGLYSLSSVVTVPSSSLGTQTYICNVNHKPSNTKVDKRV[letters of human IgG1 Fc with changes left out]
light: DIQMTQSPSSVSASVGDRVTITCSASQGISGGGNFHLRPRDLISNINVIVLELKGSETTFMCEYADETATIVEFLNRWITFSQSIISTLTPTSSSTKKTQLQLEHLLLDLQMILNGINNYKNPKLTRMLTFKFYMPKKATELKHLQCLEEELKPLEEVLNLAQSKGGGDLNWYQQKPGKAPKLLIYHTSSLHSGVPSRFSGSGSGTDFTLTISSLQPEDFATYYCQYYSKDLLTFGGGTKLEIKRTVAAPSVFIFPPSDEQLKSGTASVVCLLNNFYPREAKVQWKVDNALQSGNSQESVTEQDSKDSTYSLSSTLTLSKADYEKHKVYACEVTHQGLSSPVTKSFNRGECRTVAAPSVFIFPPSDEQLKSGTASVVCLLNNFYPREAKVQWKVDNALQSGNSQESVTEQDSKDSTYSLSSTLTLSKADYEKHKVYACEVTHQGLSSPVTKSFNRGEC
notes: Antibody C, IL-2CP in CDR-L1, linkers 2/3 AA
B2: FUE433 (other)
heavy: EVQLVQSGAEVKKPGESLKISCKGSGYSFTNFYIHWVRQAPGQRLEWMGSIYPNYGDTAYNQKFKDRFVFSLDTSVSTAYLQISSLKAEDTAVYYCARGYSYAMDYWGQGTTVTVSSASTKGPSVFPLAPSSKSTSGGTAALGCLVKDYFPEPVTVSWNSGALTSGVHTFPAVLQSSGLYSLSSVVTVPSSSLGTQTYICNVNHKPSNTKVDKRV[letters of human IgG1 Fc with changes left out]
light: DIQMTQSPSSVSASVGDRVTITCSASQGISGGGGNFHLRPRDLISNINVIVLELKGSETTFMCEYADETATIVEFLNRWITFSQSIISTLTPTSSSTKKTQLQLEHLLLDLQMILNGINNYKNPKLTRMLTFKFYMPKKATELKHLQCLEEELKPLEEVLNLAQSKGGGGDLNWYQQKPGKAPKLLIYHTSSLHSGVPSRFSGSGSGTDFTLTISSLQPEDFATYYCQYYSKDLLTFGGGTKLEIKRTVAAPSVFIFPPSDEQLKSGTASVVCLLNNFYPREAKVQWKVDNALQSGNSQESVTEQDSKDSTYSLSSTLTLSKADYEKHKVYACEVTHQGLSSPVTKSFNRGECRTVAAPSVFIFPPSDEQLKSGTASVVCLLNNFYPREAKVQWKVDNALQSGNSQESVTEQDSKDSTYSLSSTLTLSKADYEKHKVYACEVTHQGLSSPVTKSFNRGEC
notes: Antibody C, IL-2CP in CDR-L1, linkers 3/4 AA
B3: LQM346 (other)
heavy: EVQLVQSGAEVKKPGESLKISCKGSGYSFTNFYIHWVRQAPGQRLEWMGSIYPNYGDTAYNQKFKDRFVFSLDTSVSTAYLQISSLKAEDTAVYYCARGYSYAMDYWGQGTTVTVSSASTKGPSVFPLAPSSKSTSGGTAALGCLVKDYFPEPVTVSWNSGALTSGVHTFPAVLQSSGLYSLSSVVTVPSSSLGTQTYICNVNHKPSNTKVDKRV[letters of human IgG1 Fc with changes left out]
light: DIQMTQSPSSVSASVGDRVTITCSASQGISGGGGGSGNFHLRPRDLISNINVIVLELKGSETTFMCEYADETATIVEFLNRWITFSQSIISTLTPTSSSTKKTQLQLEHLLLDLQMILNGINNYKNPKLTRMLTFKFYMPKKATELKHLQCLEEELKPLEEVLNLAQSKGGGGSGGDLNWYQQKPGKAPKLLIYHTSSLHSGVPSRFSGSGSGTDFTLTISSLQPEDFATYYCQYYSKDLLTFGGGTKLEIKRTVAAPSVFIFPPSDEQLKSGTASVVCLLNNFYPREAKVQWKVDNALQSGNSQESVTEQDSKDSTYSLSSTLTLSKADYEKHKVYACEVTHQGLSSPVTKSFNRGECRTVAAPSVFIFPPSDEQLKSGTASVVCLLNNFYPREAKVQWKVDNALQSGNSQESVTEQDSKDSTYSLSSTLTLSKADYEKHKVYACEVTHQGLSSPVTKSFNRGEC
notes: Antibody C, IL-2CP in CDR-L1, linkers 6/7 AA
B4: GLK754 (other)
heavy: EVQLVQSGAEVKKPGESLKISCKGSGYSFTNFYIHWVRQAPGQRLEWMGSIYPNYGDTAYNQKFKDRFVFSLDTSVSTAYLQISSLKAEDTAVYYCARGYSYAMDYWGQGTTVTVSSASTKGPSVFPLAPSSKSTSGGTAALGCLVKDYFPEPVTVSWNSGALTSGVHTFPAVLQSSGLYSLSSVVTVPSSSLGTQTYICNVNHKPSNTKVDKRV[letters of human IgG1 Fc with changes left out]
light: DIQMTQSPSSVSASVGDRVTITCSASQGISGGGGGSGGGGSGGGNFHLRPRDLISNINVIVLELKGSETTFMCEYADETATIVEFLNRWITFSQSIISTLTPTSSSTKKTQLQLEHLLLDLQMILNGINNYKNPKLTRMLTFKFYMPKKATELKHLQCLEEELKPLEEVLNLAQSKGGGGSGGGGSGGGGDLNWYQQKPGKAPKLLIYHTSSLHSGVPSRFSGSGSGTDFTLTISSLQPEDFATYYCQYYSKDLLTFGGGTKLEIKRTVAAPSVFIFPPSDEQLKSGTASVVCLLNNFYPREAKVQWKVDNALQSGNSQESVTEQDSKDSTYSLSSTLTLSKADYEKHKVYACEVTHQGLSSPVTKSFNRGECRTVAAPSVFIFPPSDEQLKSGTASVVCLLNNFYPREAKVQWKVDNALQSGNSQESVTEQDSKDSTYSLSSTLTLSKADYEKHKVYACEVTHQGLSSPVTKSFNRGEC
notes: Antibody C, IL-2CP in CDR-L1, linkers 13/14 AA

Target: T1, His-tagged recombinant CD25 (UniProt P01589 22-213, limits assumed)
T1 construct: also called IL-2R alpha chain
T1 sequence (looked up): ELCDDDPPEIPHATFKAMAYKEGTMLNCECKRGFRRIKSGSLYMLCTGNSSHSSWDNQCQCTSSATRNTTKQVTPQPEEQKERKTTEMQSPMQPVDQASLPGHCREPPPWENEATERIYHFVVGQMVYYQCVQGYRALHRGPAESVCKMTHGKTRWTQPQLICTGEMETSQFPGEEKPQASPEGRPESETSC
Experiment: SPR, His-CD25 captured

Binder | Kd
B1 | 0.18 nM
B2 | 0.16 nM
B3 | 0.15 nM
B4 | 0.2 nM
